This is an account of results in the supplement of paper PMC8728848.

Holding throughout (assay): glycan array binding signal (z-score within array); higher = stronger binding
Holding throughout (details): glycan notation: IUPAC condensed, linker removed

Assay [1] addresses Gal(b1-4)GlcNAc(b1-2)Man(a1-3)[Gal(b1-4)GlcNAc(b1-2)Man(a1-6)][GlcNAc(b1-4)]Man(b1-4)GlcNAc(b1-4)[Fuc(a1-6)]GlcNAc. The essentials: (§1)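 The binding signal is a Z-score computed within each array. Data were drawn from 3228 arrays in the Consortium for Functional Glycomics database, restricted to those with a known protein sequence. Scores were averaged over arrays of the same protein sequence at different concentrations or buffers, and over linkers, and negative values can be taken as non-binding.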

For assay [2], the target named is Gal(b1-4)GlcNAc(b1-2)Man(a1-3)[GlcNAc(b1-2)Man(a1-6)]Man(b1-4)GlcNAc(b1-4)GlcNAc. Summed up:
as §1

For assay [3], the target named is Gal(b1-4)GlcNAc(b1-2)Man(a1-3)[GlcNAc(b1-4)][Gal(b1-4)GlcNAc(b1-2)Man(a1-6)]Man(b1-4)GlcNAc(b1-4)GlcNAc. The essentials: as §1
Assay [4] addresses Gal(b1-4)GlcNAc(b1-2)Man(a1-3)[Man(a1-6)]Man(b1-4)GlcNAc(b1-4)GlcNAc. The essentials: as §1
Assay [5] addresses Gal(b1-4)GlcNAc(b1-2)Man(a1-6)Man(b1-4)GlcNAc(b1-4)GlcNAc. The essentials:
as §1

The target of assay [6] is Gal(b1-4)GlcNAc(b1-2)Man(a1-6)[GlcNAc(b1-2)Man(a1-3)]Man(b1-4)GlcNAc(b1-4)GlcNAc. Summed up:
as §1

Assay [7] has as its target Gal(b1-4)GlcNAc(b1-2)Man(a1-6)[Man(a1-3)]Man(b1-4)GlcNAc(b1-4)GlcNAc. Summed up:
as §1

In assay [8] the target is Gal(b1-4)GlcNAc(b1-2)[Gal(b1-4)GlcNAc(b1-4)]Man(a1-3)[Gal(b1-4)GlcNAc(b1-2)Man(a1-6)]Man(b1-4)GlcNAc(b1-4)GlcNAc. The essentials: as §1
The target of assay [9] is Gal(b1-4)GlcNAc(b1-2)[Gal(b1-4)GlcNAc(b1-4)]Man(a1-3)[Gal(b1-4)GlcNAc(b1-2)[Gal(b1-4)GlcNAc(b1-6)]Man(a1-6)]Man(b1-4)GlcNAc(b1-4)GlcNAc. The essentials:
as §1

Assay [10] concerns the target Gal(b1-4)GlcNAc(b1-2)[Gal(b1-4)GlcNAc(b1-4)]Man(a1-3)[GlcNAc(b1-4)][Gal(b1-4)GlcNAc(b1-2)Man(a1-6)]Man(b1-4)GlcNAc(b1-4)GlcNAc. The essentials: as §1
The target of assay [11] is Gal(b1-4)GlcNAc(b1-2)[Gal(b1-4)GlcNAc(b1-4)]Man(a1-3)[GlcNAc(b1-4)][Gal(b1-4)GlcNAc(b1-2)[Gal(b1-4)GlcNAc(b1-6)]Man(a1-6)]Man(b1-4)GlcNAc(b1-4)GlcNAc. The essentials:
as §1

Assay [12] concerns the target Gal(b1-4)GlcNAc(b1-2)[Gal(b1-4)GlcNAc(b1-6)]Man(a1-6)[Gal(b1-4)GlcNAc(b1-2)Man(a1-3)]Man(b1-4)GlcNAc(b1-4)GlcNAc. Summed up:
as §1

Assay [13] addresses Gal(b1-4)GlcNAc(b1-2)[Gal(b1-4)GlcNAc(b1-6)]Man(a1-6)[Gal(b1-4)GlcNAc(b1-2)Man(a1-3)]Man(b1-4)GlcNAc(b1-4)[Fuc(a1-6)]GlcNAc. The essentials:
as §1

Assay [14] has as its target Gal(b1-4)GlcNAc(b1-2)[Gal(b1-4)GlcNAc(b1-6)]Man(a1-6)[GlcNAc(b1-4)][Gal(b1-4)GlcNAc(b1-2)Man(a1-3)]Man(b1-4)GlcNAc(b1-4)GlcNAc. Summed up: as §1
Assay [15] deals with Gal(b1-4)GlcNAc(b1-2)[Gal(b1-4)GlcNAc(b1-6)]Man(a1-6)[GlcNAc(b1-4)][Gal(b1-4)GlcNAc(b1-2)[Gal(b1-4)GlcNAc(b1-4)]Man(a1-3)]Man(b1-4)GlcNAc(b1-4)[Fuc(a1-6)]GlcNAc. The essentials: as §1
In assay [16] the target is Gal(b1-4)GlcNAc(b1-3)Gal(b1-3)GalNAc. Summed up:
as §1

In assay [17] the target is Gal(b1-4)GlcNAc(b1-3)Gal(b1-3)GlcNAc. The essentials:
as §1

In assay [18] the target is Gal(b1-4)GlcNAc(b1-3)Gal(b1-4)Glc. Summed up:
as §1

Assay [19] addresses Gal(b1-4)GlcNAc(b1-3)Gal(b1-4)GlcNAc. Summed up:
as §1

Assay [20] concerns the target Gal(b1-4)GlcNAc(b1-3)Gal(b1-4)GlcNAc(b1-2)Man(a1-3)[Gal(b1-4)GlcNAc(b1-3)Gal(b1-4)GlcNAc(b1-2)Man(a1-6)]Man(b1-4)GlcNAc(b1-4)GlcNAc. Summed up: as §1
For assay [21], the target named is Gal(b1-4)GlcNAc(b1-3)Gal(b1-4)GlcNAc(b1-2)Man(a1-3)[Gal(b1-4)GlcNAc(b1-3)Gal(b1-4)GlcNAc(b1-2)Man(a1-6)]Man(b1-4)GlcNAc(b1-4)[Fuc(a1-6)]GlcNAc. Summed up:
as §1

Assay [22] deals with Gal(b1-4)GlcNAc(b1-3)Gal(b1-4)GlcNAc(b1-2)[Gal(b1-4)GlcNAc(b1-3)Gal(b1-4)GlcNAc(b1-6)]Man(a1-6)[Gal(b1-4)GlcNAc(b1-3)Gal(b1-4)GlcNAc(b1-2)Man(a1-3)]Man(b1-4)GlcNAc(b1-4)GlcNAc. The essentials:
as §1

This is one part of the list.

B1: OVGAL11 (Ovis aries), AAF64320 (protein)
chain: MDSLPNPYLQSVSLTVCYMVKIKANLLSAFGKNPELQVDFGTGTGQGGNIPFRFWYCDGMVVMNTFTDGSWQKEEKVLTDAFVPGQPFELQFLVLEKEYQVFVKNKPICQFAHRLPLQSVKMLDVRGDIVLTSVDTL
With B1, the “glycan array binding signal (z-score)” value in [1] was -0.081; in assay [2], -0.058; in assay [3], -0.112; in assay [4], -0.086; in assay [5], -0.102; in assay [6] it was -0.094. The “glycan array binding signal (z-score)” value in [7] is -0.045; in assay [8] it was -0.109; in [9] it was -0.093; in assay [10] it was -0.113; in assay [11], -0.051; in [12], -0.065. For the same molecule, the “glycan array binding signal (z-score)” value in assay [13] is -0.063; in [14], -0.095; in [15], -0.113; in assay [16], -0.055; in [17], -0.077; in [18] it was -0.027. Besides, the “glycan array binding signal (z-score)” value is -0.142 in [19], 0.016 in assay [20], -0.075 in assay [21] and -0.104 in assay [22].
